# Experimental data from the supplement of paper PMC8728848.
# This is one part of the list.
# B1: AT1G15820(2) (Arabidopsis thaliana), Q9LMQ2 (protein)
# chain: MAMAVSGAVLSGLGSSFLTGGKRGATALASGVGTGAQRVGRKTLIVAAAAAQPKKSWIPAVKGGGNFLDPEWLDGSLPGDFGFDPLGLGKDPAFLKWYREAELIHGRWAMAAVLGIFVGQAWSGVAWFEAGAQPDAIAPFSFGSLLGTQLLLMGWVESKRWVDFFNPDSQSVEWATPWSKTAENFANYTGDQGYPGGRFFDPLGLAGKNRDGVYEPDFEKLERLKLAEIKHSRLAMVAMLIFYFEAGQGKTPLGALGL
# What was measured:
# Assay in all cases: glycan array binding signal (z-score within array); higher = stronger binding
# Conditions in all cases: glycan notation: IUPAC condensed, linker removed
# Fuc(a1-2)Gal = biological target: Fuc(a1-2)Gal
# How it was run: (§1)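 Glycan array data were curated from 3228 arrays in the Consortium for Functional Glycomics database and kept only where the protein sequence was available. Glycan names were converted to IUPAC-condensed notation, and columns mapping to the same glycan were averaged. The binding signal is a within-array Z-score, averaged across arrays of the same protein sequence at different concentrations or buffers and across linkers. Negative Z-scores can be read as non-binding.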
# Fuc(a1-2)Gal(b1-3)GalNAc = biological target: Fuc(a1-2)Gal(b1-3)GalNAc
# How it was run: as §1
# [1] = biological target: Fuc(a1-2)Gal(b1-3)GalNAc(a1-3)[Fuc(a1-2)]Gal(b1-4)Glc
# How it was run: as §1
# [2] = biological target: Fuc(a1-2)Gal(b1-3)GalNAc(a1-3)[Fuc(a1-2)]Gal(b1-4)GlcNAc
# How it was run: as §1
# [3] = biological target: Fuc(a1-2)Gal(b1-3)GalNAc(b1-3)Gal
# How it was run: as §1
# [4] = biological target: Fuc(a1-2)Gal(b1-3)GalNAc(b1-3)Gal(a1-4)Gal(b1-4)Glc
# How it was run: as §1
# [5] = biological target: Fuc(a1-2)Gal(b1-3)GalNAc(b1-4)[Neu5Ac(a2-3)]Gal(b1-4)Glc
# How it was run: as §1
# Fuc(a1-2)Gal(b1-3)GlcNAc = biological target: Fuc(a1-2)Gal(b1-3)GlcNAc
# How it was run: as §1
# [6] = biological target: Fuc(a1-2)Gal(b1-3)GlcNAc(b1-2)Man(a1-3)[Fuc(a1-2)Gal(b1-3)GlcNAc(b1-2)Man(a1-6)]Man(b1-4)GlcNAc(b1-4)GlcNAc
# How it was run: as §1
# [7] = biological target: Fuc(a1-2)Gal(b1-3)GlcNAc(b1-2)Man(a1-3)[Fuc(a1-2)Gal(b1-3)GlcNAc(b1-2)Man(a1-6)]Man(b1-4)GlcNAc(b1-4)[Fuc(a1-6)]GlcNAc
# How it was run: as §1
# [8] = biological target: Fuc(a1-2)Gal(b1-3)GlcNAc(b1-3)Gal(b1-4)Glc
# How it was run: as §1
# [9] = biological target: Fuc(a1-2)Gal(b1-3)GlcNAc(b1-3)GalNAc
# How it was run: as §1
# [10] = biological target: Fuc(a1-2)Gal(b1-3)GlcNAc(b1-3)[Fuc(a1-2)Gal(b1-3)GlcNAc(b1-6)]GalNAc
# How it was run: as §1
# [11] = biological target: Fuc(a1-2)Gal(b1-3)GlcNAc(b1-3)[Gal(b1-4)GlcNAc(b1-6)]Gal(b1-4)Glc
# How it was run: as §1
# [12] = biological target: Fuc(a1-2)Gal(b1-3)GlcNAc(b1-3)[Neu5Ac(a2-6)Gal(b1-4)GlcNAc(b1-6)]Gal(b1-4)Glc
# How it was run: as §1
# [13] = biological target: Fuc(a1-2)Gal(b1-3)GlcNAc6S
# How it was run: as §1
# [14] = biological target: Fuc(a1-2)Gal(b1-3)[Fuc(a1-4)]GlcNAc
# How it was run: as §1
# [15] = biological target: Fuc(a1-2)Gal(b1-3)[Fuc(a1-4)]GlcNAc(b1-2)Man(a1-3)[Fuc(a1-2)Gal(b1-3)[Fuc(a1-4)]GlcNAc(b1-2)Man(a1-3)]Man(b1-4)GlcNAc(b1-4)GlcNAc
# How it was run: as §1
# [16] = biological target: Fuc(a1-2)Gal(b1-3)[Fuc(a1-4)]GlcNAc(b1-2)Man(a1-3)[Fuc(a1-2)Gal(b1-3)[Fuc(a1-4)]GlcNAc(b1-2)Man(a1-6)]Man(b1-4)GlcNAc(b1-4)[Fuc(a1-6)]GlcNAc(b1-4)[Fuc(a1-6)]GlcNAc
# How it was run: as §1
# [17] = biological target: Fuc(a1-2)Gal(b1-3)[Fuc(a1-4)]GlcNAc(b1-3)[Fuc(a1-3)[Gal(b1-4)]GlcNAc(b1-6)]Gal(b1-4)Glc
# How it was run: as §1
# [18] = biological target: Fuc(a1-2)Gal(b1-3)[Fuc(a1-4)]GlcNAc(b1-3)[Gal(b1-4)GlcNAc(b1-6)]Gal(b1-4)Glc
# How it was run: as §1
# [19] = biological target: Fuc(a1-2)Gal(b1-4)Fuc(a1-3)]GlcNAc(b1-2)Man(a1-3)[Fuc(a1-2)Gal(b1-4)[Fuc(a1-3)]GlcNAc(b1-2)Man(a1-6)]Man(b1-4)GlcNAc(b1-4)GlcNAc
# How it was run: as §1
# Fuc(a1-2)Gal(b1-4)Glc = biological target: Fuc(a1-2)Gal(b1-4)Glc
# How it was run: as §1
# Fuc(a1-2)Gal(b1-4)Glc6S = biological target: Fuc(a1-2)Gal(b1-4)Glc6S
# How it was run: as §1
# Fuc(a1-2)Gal(b1-4)GlcNAc = biological target: Fuc(a1-2)Gal(b1-4)GlcNAc
# How it was run: as §1
# [20] = biological target: Fuc(a1-2)Gal(b1-4)GlcNAc(b1-2)Man
# How it was run: as §1
# [21] = biological target: Fuc(a1-2)Gal(b1-4)GlcNAc(b1-2)Man(a1-3)[Fuc(a1-2)Gal(b1-4)GlcNAc(b1-2)Man(a1-6)]Man(b1-4)GlcNAc(b1-4)GlcNAc
# How it was run: as §1
# [22] = biological target: Fuc(a1-2)Gal(b1-4)GlcNAc(b1-2)Man(a1-3)[Fuc(a1-2)Gal(b1-4)GlcNAc(b1-2)Man(a1-6)]Man(b1-4)GlcNAc(b1-4)[Fuc(a1-6)]GlcNAc
# How it was run: as §1
# [23] = biological target: Fuc(a1-2)Gal(b1-4)GlcNAc(b1-2)[Fuc(a1-2)Gal(b1-4)GlcNAc(b1-4)]Man(a1-3)[Fuc(a1-2)Gal(b1-4)GlcNAc(b1-2)Man(a1-6)]Man(b1-4)GlcNAc(b1-4)GlcNAc
# How it was run: as §1
# [24] = biological target: Fuc(a1-2)Gal(b1-4)GlcNAc(b1-3)Gal(b1-4)GlcNAc
# How it was run: as §1
binder,measurement,setting,value
B1,glycan array binding signal (z-score),Fuc(a1-2)Gal,0.517
same,glycan array binding signal (z-score),Fuc(a1-2)Gal(b1-3)GalNAc,-0.486
same,glycan array binding signal (z-score),[1],-0.155
same,glycan array binding signal (z-score),[2],0.079
same,glycan array binding signal (z-score),[3],0.168
same,glycan array binding signal (z-score),[4],-0.595
same,glycan array binding signal (z-score),[5],0.126
same,glycan array binding signal (z-score),Fuc(a1-2)Gal(b1-3)GlcNAc,-0.442
same,glycan array binding signal (z-score),[6],0.522
same,glycan array binding signal (z-score),[7],0.063
same,glycan array binding signal (z-score),[8],-0.154
same,glycan array binding signal (z-score),[9],-0.637
same,glycan array binding signal (z-score),[10],0.037
same,glycan array binding signal (z-score),[11],-0.18
same,glycan array binding signal (z-score),[12],-0.367
same,glycan array binding signal (z-score),[13],0.649
same,glycan array binding signal (z-score),[14],-0.24
same,glycan array binding signal (z-score),[15],0.497
same,glycan array binding signal (z-score),[16],-0.001
same,glycan array binding signal (z-score),[17],-0.344
same,glycan array binding signal (z-score),[18],0.151
same,glycan array binding signal (z-score),[19],-0.256
same,glycan array binding signal (z-score),Fuc(a1-2)Gal(b1-4)Glc,-0.536
same,glycan array binding signal (z-score),Fuc(a1-2)Gal(b1-4)Glc6S,-0.057
same,glycan array binding signal (z-score),Fuc(a1-2)Gal(b1-4)GlcNAc,-0.243
same,glycan array binding signal (z-score),[20],-0.083
same,glycan array binding signal (z-score),[21],-0.533
same,glycan array binding signal (z-score),[22],-0.613
same,glycan array binding signal (z-score),[23],-0.2
same,glycan array binding signal (z-score),[24],0.015
